# Data from PubChem BioAssay AID1347417 (National Center for Advancing Translational Sciences (NCATS), 2020).
# The campaign covered roughly 120,000 compounds. About 5,300 (4.4%) were called active. This list was built around the results that the source calls inconclusive (neither active nor inactive); the mix of calls is not that of the screen. Calls follow the shape of the dose curve; as a rule, active = well fitted inhibition curve with a large enough effect; inconclusive = small, poorly fitted or top-dose-only effect; inactive = no such curve, though single readings can be large or run the other way. Where the call is inconclusive, the potency comes from a doubtful curve fit.
# Test: qHTS Primary assay for Inhibitors of Plasmodium falciparum Dd2 growth in vitro; also: nearly all actives have a fitted effect of over 65% in size;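 as to activity, negative = inhibition: plate controls were DMSO vehicle for no effect and reference drug for full effect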
# Details: P. falciparum Dd2 growth, SYBR Green, 72 h; activity, negative = inhibition: at 28.9 µM (top of the series) unless noted; series mostly up to 28.9 µM
# Summary of the method: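 Readout: SYBR Green fluorescence, 485 nm excitation, 535 nm emission, after ~16 h lysis at 37C. Before that, Dd2-infected red cells (2.5% hematocrit) grew 72 h with compound, 29 uM top final concentration.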
# Potency is read from the fitted curve at half-maximal effect; tags tell the direction and shape of the fitted curve.
SMILES,Potency,outcome,"activity, negative = inhibition"
COc1ccc(S(=O)(=O)N2CCC3(CC2)CC(CC(=O)NC2CC2)CCO3)cc1 (stereo not drawn),active: 6.31 µM,,
CC1CCN(C(=O)CCC[C@H]2NC[C@@H]3C[C@H]2CN(Cc2ccccc2)C3)CC1,"inconclusive: 20 µM [inhibitor, single point]",,
CN1Cc2cccn2CC1CNC(=O)C1(S(=O)(=O)c2ccc(Cl)cc2)CC1 (stereo not drawn),"inconclusive: 8.91 µM [inhibitor, partial curve, poor fit]",,
COc1cccc(CN2CC[C@H]3C(=O)NCCCCCCN(Cc4ccncc4)[C@@H]3C2)n1,"inconclusive: 12.6 µM [inhibitor, partial curve]",,
CCCn1cc(S(=O)(=O)c2ccc(OC)cc2)c(=O)c2cc(F)c(N3CCCC(C)C3)cc21 (stereo not drawn),active: 11.2 µM,,
N#Cc1ccccc1CN1CCCCC1c1nc(CCOCC2CCCC2)no1 (stereo not drawn),"inconclusive: 12.6 µM [inhibitor, single point]",,
CCc1noc(-c2cn(C3CCN(C(=O)c4ccc[nH]4)CC3)nn2)n1,,inactive,
COc1cccc(N2C(=O)NC(=NC3CCCC3)C23CCCN([S+](=O)([O-])c2ccccc2)C3)c1 (stereo not drawn),,,inconclusive: -58.4% [inhibitor]
CNC(=O)[C@@H]1CN(C(=O)c2cncn2C)C[C@H]1COC,,,inactive: -18.9%
O=C(Nc1ccc(F)cc1)c1c[nH]c2cccnc12,,,inconclusive: -44% [inhibitor] [at 44.1 µM]
CCOC(=O)c1[nH]c2c(c1Cc1ccccc1OC)C(=O)CC(c1ccccc1)C2 (stereo not drawn),active: 11.2 µM,,
CSc1cccc(NC(=O)Cn2c(-c3cccc(Cl)c3)nc(C)c(CCO)c2=O)c1,"inconclusive: 2 µM [inhibitor, full curve]",,
COc1ccc(C2Cn3nnc(-c4noc(COc5cccc(C)c5)n4)c3CO2)cc1 (stereo not drawn),active: 10 µM,,
COC(=O)C1=C(C)N=C2SC=C(CC(=O)NCC3CC3)N2C1c1ccccc1OC (stereo not drawn),"inconclusive: 1 µM [inhibitor, partial curve, poor fit]",,
COCCOCC(=O)N1CCCN(C(=O)C2CC2)C(c2ccccc2)CC(=O)NCC1 (stereo not drawn),,,inactive: 18.9%
COC(=O)[C@@H](Cc1cccnc1)NC(=O)[C@H]1CN(C(=O)Nc2ccccc2)CCN1S(=O)(=O)c1ccccc1,,,inactive: -14.7%
Cc1ccc(N2CC(c3noc(-c4ccc5c(c4)OCO5)n3)CC2=O)cc1 (stereo not drawn),,,inactive: 28.5%
COCCc1nn2c(=O)cc(COC(=O)c3ccccc3C)nc2s1,"inconclusive: 20 µM [inhibitor, partial curve, poor fit]",,
O=C(NC[C@H]1O[C@H](Cc2cc(-c3ccccc3)on2)CC[C@@H]1O)c1ccccc1F,"inconclusive: 12.6 µM [inhibitor, single point]",,
CCOc1ccc(CN2CCC3(CC2)Cc2ccccc2CNC3=O)cc1,"inconclusive: 11.2 µM [inhibitor, single point]",,
COc1ccc(CN2C(=O)CO[C@H]3CN(c4ccc(C#N)cn4)C[C@H]32)cc1,"inconclusive: 10 µM [inhibitor, partial curve]",,
Cc1cn2nc(C(=O)Nc3ccc(N(C)C)cc3)cc2c(N2CCCC2)n1,active: 0.631 µM,,

SMILES,Potency,outcome,"activity, negative = inhibition"
Cc1ccccc1CNC[C@H]1Cn2c(-c3ccccc3)cnc2CO1,"inconclusive: 6.31 µM [inhibitor, partial curve]",,
CCc1ccc(NC(=O)C(=O)NCC(c2cccnc2)N2CCc3ccccc3C2)cc1 (stereo not drawn),"inconclusive: 17.8 µM [inhibitor, single point]",,
COc1nnc(-c2ccc(N3CCCCC3)c(NC(=O)c3ccccc3Cl)c2)c2ccccc12,"inconclusive: 10 µM [inhibitor, single point]",,
O=C(Nc1sc2c(c1C(=O)NCc1ccccc1)CCCC2)c1cc(=O)c2ccccc2o1,"inconclusive: 3.55 µM [inhibitor, full curve]",,
COCc1cc(C)nc2c1C(=O)NC(c1ccc(Br)cc1)N2Cc1ccccc1 (stereo not drawn),active: 10 µM,,
OCc1cccc(-c2ccc3ncc(Nc4ccccc4Cl)n3n2)c1,active: 3.98 µM,,
O=C(Nc1cccc(C(F)(F)F)c1)N1CCC(N2CC3CC(C2)[C@H]2CCCC(=O)N2C3)CC1 (stereo partly drawn),,,inactive: -1.93%
O=C(NCC1CC1)c1ccc(N2CC3CC(C2)[C@H]2CCCC(=O)N2C3)nc1 (stereo partly drawn),,inactive,
CCCSc1oc(-c2cccs2)nc1S(=O)(=O)c1ccc(C)cc1,,,inactive: -20.7%
Cc1cccc(C)c1NC(=O)N1CCCC1c1nncn1C1CCCC1 (stereo not drawn),,,inactive: -2.2%
COc1ccc(NC(=O)Cn2c(=O)n(CCCCCC(=O)NCc3ccc4c(c3)OCO4)c(=O)c3sccc32)cc1Cl,"inconclusive: 10 µM [inhibitor, single point]",,
CCS(=O)(=O)N1CCC2(CCC(=O)N(CC3CC3)CC2)CC1,,,inactive: -6.9%
CCOC(=O)c1ccc(NC(=O)c2ccc3c(c2)N(CC)C2CCCN2C3=O)cc1 (stereo not drawn),"inconclusive: 3.98 µM [inhibitor, single point]",,
CSc1ccc2cc(CN3CCCC(O)C3)c(-c3ccc(Cl)cc3)nc2c1 (stereo not drawn),"inconclusive: 12.6 µM [inhibitor, partial curve, poor fit]",,
CCCn1cc(-c2ccncc2)cc1C(=O)Nc1ccccc1C,"inconclusive: 17.8 µM [inhibitor, single point]",,
Cc1cc(C(=O)N2CCC3(CC2)CC(N(C(=O)c2ccccc2)C2CC2)CCO3)n(C)n1 (stereo not drawn),,,inactive: -24.2%
COCCNC(=O)c1ccc(OC2CCN(C/C=C/c3ccc(F)cc3)CC2)c(Cl)c1,"inconclusive: 1.78 µM [inhibitor, full curve, poor fit]",,
COc1ccc2c(CNC3CCCCCC3)c(C(=O)O)n(Cc3ccc(C)cc3)c2c1,active: 8.91 µM,,
NCc1ccc(-c2cc(F)cc(F)c2)cc1,"inconclusive: 11.2 µM [inhibitor, single point]",,
CCc1nnc(SCc2cccc(Cl)c2)c2cc3sccc3n12,"inconclusive: 8.91 µM [inhibitor, single point]",,
COc1ccc(-c2cc(OC(=O)c3ccccc3Cl)c3c(C)oc(C)c3c(=O)c2)cc1OC,"inconclusive: 14.1 µM [inhibitor, partial curve, poor fit]",,
